According to US20230364057A1, “BACTERIAL DNA GYRASE INHIBITORS AND METHODS OF USE THEREOF” (THE FLORIDA INTERNATIONAL UNIVERSITY BOARD OF TRUSTEES, priority 2022, published 2023):

Biological target: human DNA topoisomerase IIα (Homo sapiens (Human), UniProt P11388)
Assay: Agarose gel-based inhibition assay against human DNA topoisomerase IIα
Description: The standard deviations are calculated according to three independent experiments. (B) Agarose gel-based gyrase inhibition assays for compound 154. […] Lanes 1 and 2 are relaxed and supercoiled plasmid pAB1, respectively. (C) Gyrase-mediated DNA cleavage assays were performed as described in Methods using plasmid pBR322. […] Lanes 2-5 contain 10, 50, 100, 150, and 200 µM of compound 154, respectively. […] . (D) Agarose gel-based inhibition assays against human DNA topoisomerase 2α for compound 154. Lanes 3-6 correspond to 0, 25, 50, and 100 µM of the compound, respectively. Lanes 1 and 2 are relaxed and supercoiled plasmid pAB1, respectively. (E) Human DNA topoisomerase 2α-mediated DNA cleavage assays were performed as described in Materials and Methods using plasmid pBR322. […] Lanes 1-3 contain 50, 100, and 200 µM of compound 154, respectively. Lane 4 contain 100 µM of etoposide (ETP). Lanes 5 and 6 contain DNA samples from the assay mixtures in the absence of etoposide and human DNA topoisomerase 2a, respectively. Symbols Rx, Sc, Nk, and Ln represent relaxed, supercoiled, nicked, and linear DNA, respectively. (F) Compound 154 is a gyrase poison that inhibits E. coli DNA gyrase and Topoisomerase IV. (G) and (H) show molecular models of compound 154 binding to gyrase-DNA complexes. […]
The standard deviations are calculated according to three independent experiments. […]

Chain of human DNA topoisomerase IIα (P11388 whole entry): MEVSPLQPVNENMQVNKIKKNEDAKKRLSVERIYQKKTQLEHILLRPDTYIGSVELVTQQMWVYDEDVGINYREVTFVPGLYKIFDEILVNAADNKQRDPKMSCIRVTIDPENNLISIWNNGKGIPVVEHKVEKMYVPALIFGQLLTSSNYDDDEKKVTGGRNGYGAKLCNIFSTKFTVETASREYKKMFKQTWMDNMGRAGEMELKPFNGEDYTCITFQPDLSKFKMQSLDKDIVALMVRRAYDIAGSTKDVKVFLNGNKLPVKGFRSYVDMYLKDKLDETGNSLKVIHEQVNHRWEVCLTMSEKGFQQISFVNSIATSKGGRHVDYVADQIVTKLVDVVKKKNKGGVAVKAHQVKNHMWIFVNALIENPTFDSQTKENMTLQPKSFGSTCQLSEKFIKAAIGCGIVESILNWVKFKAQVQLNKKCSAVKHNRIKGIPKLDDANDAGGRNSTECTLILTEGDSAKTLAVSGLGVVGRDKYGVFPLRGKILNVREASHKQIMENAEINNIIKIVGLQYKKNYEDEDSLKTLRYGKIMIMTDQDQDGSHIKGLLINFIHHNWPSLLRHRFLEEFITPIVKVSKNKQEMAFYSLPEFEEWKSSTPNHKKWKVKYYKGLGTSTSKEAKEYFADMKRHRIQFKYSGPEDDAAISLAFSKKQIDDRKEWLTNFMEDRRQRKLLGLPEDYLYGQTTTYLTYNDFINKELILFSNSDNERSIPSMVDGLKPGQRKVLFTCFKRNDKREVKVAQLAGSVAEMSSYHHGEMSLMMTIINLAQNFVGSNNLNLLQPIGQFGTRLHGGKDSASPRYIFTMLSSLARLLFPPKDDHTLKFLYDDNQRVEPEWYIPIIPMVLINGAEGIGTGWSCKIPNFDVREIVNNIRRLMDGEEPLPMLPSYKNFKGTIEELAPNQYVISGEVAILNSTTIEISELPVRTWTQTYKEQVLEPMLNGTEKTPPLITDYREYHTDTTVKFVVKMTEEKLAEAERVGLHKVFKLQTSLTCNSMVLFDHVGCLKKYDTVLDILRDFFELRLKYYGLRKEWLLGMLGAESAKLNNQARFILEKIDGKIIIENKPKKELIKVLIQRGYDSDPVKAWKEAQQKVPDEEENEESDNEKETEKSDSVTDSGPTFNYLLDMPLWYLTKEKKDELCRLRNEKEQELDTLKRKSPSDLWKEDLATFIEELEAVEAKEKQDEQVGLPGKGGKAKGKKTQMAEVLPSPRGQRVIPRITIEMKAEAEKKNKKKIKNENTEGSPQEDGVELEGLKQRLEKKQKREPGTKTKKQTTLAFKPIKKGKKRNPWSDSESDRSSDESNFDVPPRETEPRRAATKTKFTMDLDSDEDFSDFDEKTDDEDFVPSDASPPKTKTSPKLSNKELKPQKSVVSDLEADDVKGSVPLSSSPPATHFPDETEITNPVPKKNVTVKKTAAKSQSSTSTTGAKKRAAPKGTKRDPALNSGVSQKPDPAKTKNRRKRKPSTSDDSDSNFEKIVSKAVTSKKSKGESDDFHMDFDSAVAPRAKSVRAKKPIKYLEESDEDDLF

SMILES	selectivity index (Mtb gyrase over human TopoIIα)
Cc1c(CCC(=O)O)c(=O)oc2c(C)c3occ(-c4ccc5ccccc5c4)c3cc12 [Compound 124]	39
Cc1c(CCC(=O)O)c(=O)oc2c(C)c3occ(-c4ccc(-c5ccccc5)cc4)c3cc12 [Compound 119]	8.3
